What was measured:
[1] = biological target: NGF (species not stated) (Homo sapiens (Human)) (UniProt P01138); experiment: cell-based or functional assay
[2] = biological target: NGF (species not stated) (Homo sapiens (Human)) (UniProt P01138); experiment: SPR, Biacore 8K; captured on Protein A chip, NGF in solution (the table does not say human or rat)

Bottom (%), best-fit values, PathHunter TrkA activation assay [1]: 28.7% | IC50 (nM), PathHunter TrkA activation assay [1]: 18.7 nM | Top (%), best-fit values, PathHunter TrkA activation assay [1]: 97.9% | Kd [2]: 2.31 nM
B1: PetML309 (Human p75NTR ECD partial stalk IgG1) (Fc fusion)
chain: KEACPTGLYTHSGECCKACNLGEGVAQPCGANQTVCEPCLDSVTFSDVVSATEPCKPCTECVGLQSMSAPCVEADDAVCRCAYGYYQDETTGRCEACRVCEAGSGLVFSCQDKQNTVCEECPDGTYSDEANHVDPCLPCTVCEDTERQLRECTRWADAECEEIPGRWITRSTPPEGGGG[sequence of human IgG1 Fc omitted]
